This is one part of the list. Values were computed here from the reads of four pooled replicates and scatter widely.
Molecular target: T1, Pho4 (S. cerevisiae) (UniProt P07270)
T1 sequence: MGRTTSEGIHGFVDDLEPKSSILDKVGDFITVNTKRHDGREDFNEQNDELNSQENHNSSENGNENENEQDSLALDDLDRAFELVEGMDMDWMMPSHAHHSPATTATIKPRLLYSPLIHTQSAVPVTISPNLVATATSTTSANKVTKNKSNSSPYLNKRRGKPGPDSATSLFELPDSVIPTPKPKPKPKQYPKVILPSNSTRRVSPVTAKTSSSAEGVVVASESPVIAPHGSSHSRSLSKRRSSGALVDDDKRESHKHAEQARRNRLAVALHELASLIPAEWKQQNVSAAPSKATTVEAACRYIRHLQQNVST
Experiment: relative binding free energy (BET-seq); higher = weaker binding
Conditions: reference: library average

Relative binding free energy, 0.1 kcal/mol:
AAAGTCACGTGCTTTT

Relative binding free energy, -0.14 kcal/mol:
TGGAGCACGTGGCAGA

Relative binding free energy, 0.17 kcal/mol:
TGGCGCACGTGTATCG
GTTGCCACGTGAGTGT

Relative binding free energy, 0.24 kcal/mol:
GGGAGCACGTGAGTGG
TTATTCACGTGTTTAC
TTATTCACGTGGGGGC

Relative binding free energy, 0.21 kcal/mol:
AGAATCACGTGGAAGG
GTAAGCACGTGAGGCT
GGTGTCACGTGTGATC

Relative binding free energy, 0.37 kcal/mol:
GGGTTCACGTGAGAGA
TTTGTCACGTGAAGTA

Relative binding free energy, 0.19 kcal/mol:
TCATTCACGTGCTGTG
CTGTCCACGTGATGGT
TAGCTCACGTGTGATG
ATGTTCACGTGGGTGG

Relative binding free energy, 0.14 kcal/mol:
ACGGTCACGTGTGAAG
TGCTACACGTGTTATG
GGTATCACGTGTCGAG
GCGTCCACGTGTTGGT
TGTAGCACGTGAAAGT

Relative binding free energy, 0.45 kcal/mol:
GTATTCACGTGAGGAG

Relative binding free energy, 0.15 kcal/mol:
TTTAACACGTGTGGAA
TGTTACACGTGTTATC
TTGGGCACGTGAGGAT

Relative binding free energy, -0.37 kcal/mol:
CTAGGCACGTGGGGCT

Relative binding free energy, -0.18 kcal/mol:
CTCTGCACGTGGGGCG
GATACCACGTGGGTGG

Relative binding free energy, -0.16 kcal/mol:
GAACGCACGTGGGGTT
ATTAGCACGTGGGGGA
TGTCGCACGTGGGGAT
TATTGCACGTGGCGGG

Relative binding free energy, 0.09 kcal/mol:
GTAGGCACGTGTGTTT
AGGGGCACGTGAACGG
ATCGGCACGTGTGTAT

Relative binding free energy, -0.02 kcal/mol:
GTAGGCACGTGTCAGT
GATTACACGTGGATTG
AATGGCACGTGTAGGT

Relative binding free energy, -0.05 kcal/mol:
CGGTGCACGTGGAGGG
ACTTACACGTGGGTTG
TTTCGCACGTGTGCGG
TGCGTCACGTGGTCGG
GATACCACGTGTTGGT
TAAGACACGTGGGGGG
TTATGCACGTGTTGAT

Relative binding free energy, -0.01 kcal/mol:
ATGGGCACGTGGTAAA
TGCTGCACGTGCTGGT
TTTGACACGTGTTAGT
TGGTGCACGTGCATTG
GAGGGCACGTGTGGGC

Relative binding free energy, 0.28 kcal/mol:
TTATTCACGTGTTCGC
ATGGTCACGTGAGGGC
TACTTCACGTGTAAGT
AGGTTCACGTGTGTTG
TCGTTCACGTGTTGAA

Relative binding free energy, -0.07 kcal/mol:
GAAGGCACGTGCTTTG
ATTGGCACGTGTTGAC
ACTGGCACGTGTTTGG

Relative binding free energy, 0 kcal/mol:
CTTATCACGTGCGTGG
GGGGCCACGTGACAGG
AGTGTCACGTGTGGTT

Relative binding free energy, -0.29 kcal/mol:
GGGCGCACGTGGCGCG

Relative binding free energy, 0.06 kcal/mol:
TGGCTCACGTGGTGCG
AAAGGCACGTGGAGTC
AGCGTCACGTGTAGTT

Relative binding free energy, -0.12 kcal/mol:
TGGCGCACGTGGTGGG
ATGTGCACGTGGAGAT

Relative binding free energy, 0.05 kcal/mol:
AATTGCACGTGTCATT
GGTGCCACGTGTGGAG
AAGGTCACGTGTTTAG
TTTGACACGTGTGCGA
GTTTACACGTGGGTGT
CCGGTCACGTGGGTAT
AGTAACACGTGGAGCG
TCCTGCACGTGATGGT
TCGGGCACGTGTTCGA

Relative binding free energy, 0.22 kcal/mol:
AGTTGCACGTGAGCGT
TTTTTCACGTGATCAA
GTGGACACGTGACGGT
ATGGACACGTGGATGT
TCGAGCACGTGATGAG

Relative binding free energy, 0.04 kcal/mol:
AGTATCACGTGGTTCG
TGTTACACGTGTGCTA

Relative binding free energy, 0.42 kcal/mol:
AAGTTCACGTGAAAGG
TGGTTCACGTGAGACA

Relative binding free energy, 0.12 kcal/mol:
TTCCTCACGTGTGGGT
GATGACACGTGATGGG
GGTTACACGTGGTAGC
GTGTGCACGTGTTGGC

Relative binding free energy, 0.18 kcal/mol:
ATTTTCACGTGTTTTG
ATTAACACGTGACGGT
TACTGCACGTGAGGGA
AACATCACGTGGGGAT
GGCTTCACGTGTGGTT

Relative binding free energy, 0.25 kcal/mol:
TGTTTCACGTGTCGGA
GTAAGCACGTGAAGTG

Relative binding free energy, 0.34 kcal/mol:
TTTGTCACGTGGAAGT
ATGCTCACGTGTAAGG

Relative binding free energy, 0.11 kcal/mol:
CGTTGCACGTGATAAT
AGACGCACGTGTGGTA
AGTTACACGTGTAATG
TGTCTCACGTGCGGTT
GTGCGCACGTGAGGGG
TATATCACGTGGTGGA
TTTAACACGTGGAATG

Relative binding free energy, 0.29 kcal/mol:
GCCTTCACGTGGGGGA
AGATTCACGTGTGGAA
AAGCTCACGTGTGTGA
GTGCTCACGTGGAGTA

Relative binding free energy, 0.4 kcal/mol:
GAATTCACGTGGAATT

Relative binding free energy, -0.17 kcal/mol:
AGAGGCACGTGCAGGT
CTTGGCACGTGCTGTT

Relative binding free energy, 0.13 kcal/mol:
GTGCGCACGTGATGAT
ATTATCACGTGGGATT
AGTTGCACGTGTATGT
CATTGCACGTGAGTTT

Relative binding free energy, 0.49 kcal/mol:
ACATTCACGTGATTGA

Relative binding free energy, 0.16 kcal/mol:
TGTCTCACGTGTAGTA
CATGTCACGTGTAAGT
GAGGGCACGTGAGAAT
TTGCACACGTGTATTT
AGGTTCACGTGGTGCA
TAGGTCACGTGTCTGT

Relative binding free energy, 0.36 kcal/mol:
TCATTCACGTGTCGGG
ACGGCCACGTGAGGTT
TTTGTCACGTGATTCC

Relative binding free energy, 0.02 kcal/mol:
GACAGCACGTGGTGGA
TATGCCACGTGTAGAG
ATCGTCACGTGGTGGT
ATATACACGTGTTAGT
CTTAGCACGTGATGTT
GTCGACACGTGTTTTG

Relative binding free energy, 0.32 kcal/mol:
CGGCTCACGTGATGTG
TTACTCACGTGGAAGT
AGATTCACGTGTTAGT
TGGTTCACGTGTAGAC
GGATTCACGTGAGCTG
TTGATCACGTGGGAAA

Relative binding free energy, -0.06 kcal/mol:
ATTATCACGTGGGAGA
ATTGGCACGTGTAGTA
CGGTGCACGTGGTCTT
CGGTGCACGTGCAGGT
TTTGCCACGTGCGTAT

Relative binding free energy, 0.23 kcal/mol:
GGCTGCACGTGTAATT
GGACTCACGTGTTATT
CGTATCACGTGATGGT
TTGGACACGTGCAGTC
TTAATCACGTGAGCGT
AGTTACACGTGAGGGT
ATTTTCACGTGGGCTG
TTGGTCACGTGAGCAG

Relative binding free energy, 0.08 kcal/mol:
TGTGTCACGTGTAGGC
AGTATCACGTGGATTA
TAGCGCACGTGAGTAT
TTTGTCACGTGCGGAT
AATTGCACGTGTTGTT
CGTGTCACGTGTTTCA
ATGGTCACGTGATCAG
GCTGGCACGTGGATGT
TGGGACACGTGGATAA
AGGATCACGTGGTGAA
CGAGTCACGTGTTGGA
TTAGCCACGTGTAAGT

Relative binding free energy, 0.47 kcal/mol:
AGCTTCACGTGAGGTG

Relative binding free energy, 0.03 kcal/mol:
AATTGCACGTGATTTA
ACCGTCACGTGGTGGG
GAGTACACGTGGTGCA
GGAGACACGTGTGGTA
GTGAGCACGTGTATGA
TTTAGCACGTGGGAAC
TGGCGCACGTGAGGTG
TGGGACACGTGCGGTT
TGGGACACGTGGATTG

Relative binding free energy, -0.23 kcal/mol:
GAGGGCACGTGGGCGG
AGGGGCACGTGGGTCG

Relative binding free energy, 0.26 kcal/mol:
AAATTCACGTGTATAG
TGGTTCACGTGGAGTG
ATGGTCACGTGAATTT
GATTACACGTGTTTTT
GAATTCACGTGGGTTC

Relative binding free energy, 0.27 kcal/mol:
AGTGTCACGTGAAATT

Relative binding free energy, -0.26 kcal/mol:
TTTGGCACGTGGGGTA

Relative binding free energy, -0.13 kcal/mol:
TCGTGCACGTGTGTAA
TATGCCACGTGGTGAG

Relative binding free energy, -0.2 kcal/mol:
ATTTGCACGTGTTTAA

Relative binding free energy, 0.31 kcal/mol:
GTTTCCACGTGAATTT
GAGGTCACGTGACGTT

Relative binding free energy, -0.35 kcal/mol:
TTGCCCACGTGGGTGT

Relative binding free energy, 0.38 kcal/mol:
GGTTTCACGTGAAGTA

Relative binding free energy, -0.03 kcal/mol:
GTTGTCACGTGGGCTA

Relative binding free energy, 0.43 kcal/mol:
GAGTTCACGTGTGTTG

Relative binding free energy, 0.3 kcal/mol:
GACTGCACGTGAGGGT
GGTTTCACGTGGGATG
TCATTCACGTGTTAGG

Relative binding free energy, -0.04 kcal/mol:
CTGTGCACGTGTGCGG
GTGACCACGTGTTGTG
ATGGACACGTGGGACT
AAAGGCACGTGTATAT
ATGGACACGTGGTCGA
GAGAGCACGTGGGCGT

Relative binding free energy, -0.21 kcal/mol:
GAGGGCACGTGGGTTG
TATGGCACGTGGGGCG

Relative binding free energy, 0.35 kcal/mol:
GTAAACACGTGAGATT
GTTTCCACGTGATGTA

Relative binding free energy, 0.01 kcal/mol:
GGGTACACGTGGGACA
GGTTCCACGTGCGTGG
GGAAACACGTGTGTGT
AAGGACACGTGGAGTA
TGGTGCACGTGTCGAT
TAGTGCACGTGATTGG
TATGACACGTGGTGTT
TTGAACACGTGCGTGT
TGTGGCACGTGAGCGA
TTGTACACGTGTTCTG

Relative binding free energy, -0.08 kcal/mol:
AGGAGCACGTGGGAAT

Relative binding free energy, 0.07 kcal/mol:
TGGTACACGTGCATTT
ATAGTCACGTGGTGAA
ACAGTCACGTGGAGTT

Relative binding free energy, 0.2 kcal/mol:
CGTTTCACGTGTGTTG
ATTTTCACGTGGCGAT
CATATCACGTGTTTGG
GGGATCACGTGCCGGG
AGAGGCACGTGAGTTT

Relative binding free energy, -0.09 kcal/mol:
TTGCACACGTGGTGTA
TGATGCACGTGGAGTA

Relative binding free energy, -0.1 kcal/mol:
TAGCGCACGTGTGCGG
CGTGGCACGTGGCGGA
TTATACACGTGCTTGG
CGTTGCACGTGGTACG

Relative binding free energy, -0.22 kcal/mol:
CGCTCCACGTGGGGGG

From the BET-seq Pho4 binding data (Le et al. 2018)
